About 6,000 (1.7%) of roughly 360,000 compounds were called active. This list was built around the results that the source calls inconclusive (neither active nor inactive); the mix of calls is not that of the screen. Calls follow the shape of the dose curve; as a rule, active = well fitted cell-killing curve with a large enough effect; inconclusive = small, poorly fitted or top-dose-only effect, or effect the other way; inactive = flat fitted curve, though single readings scatter. Potencies of inconclusive entries are left out as doubtful fits.
Assay: qHTS for induction of synthetic lethality in tumor cells producing 2HG: qHTS for the HT-1080-NT fibrosarcoma cell line;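 also: NT is the 2HG producing partner of a matched IDH1 knockdown line; nearly all actives have a fitted effect of over 55% in size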;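 as to activity, negative = less viability: 0% = DMSO-treated cells and -100% = media-only wells without cells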
Settings: HT-1080-NT fibrosarcoma viability, CellTiter-Glo ATP luminescence, 48 h; activity, negative = less viability: at 46.1 µM (top of the series) unless noted
Procedure, shortened: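 A 48-hour cytotoxicity screen used HT-1080-NT cells plated 2 hours before compound delivery. ATP-based CellTiter-Glo luminescence measured viability, normalized to DMSO and no-cell controls.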
Potency is read from the fitted curve at half-maximal effect; tags tell the direction and shape of the fitted curve.

| SMILES | Potency | activity, negative = less viability |
| --- | --- | --- |
| COc1cc(/C=C(\C#N)c2ccccn2)cc(OC)c1O | inactive |  |
| C(#CSCc1ccccc1)SCc1ccccc1 | inactive |  |
| O=C(COc1ccccc1)Nc1cccc(-c2nc3ccccc3[nH]2)c1 | inconclusive [cytotoxic, single point] |  |
| Cc1cc(/C=N/NC(=O)c2cccs2)c(C)n1-c1ccccc1 |  | inconclusive: -2.38% [cytotoxic] |
| CCOc1nc2ccccc2cc1C=O | inactive |  |
| Cn1cnc([N+](=O)[O-])c1Sc1ccc(C(C)(C)C)cc1 | inconclusive [cytotoxic, single point] |  |
| COc1ccc(C(=O)Nc2ccc(N3CCCCCC3)cc2)cc1S(=O)(=O)N1CCOCC1 | inconclusive [cytotoxic, single point] |  |
| COC(=O)c1ccc(Cn2c(C)c(C(=O)NCc3ccc(Cl)c(Cl)c3)sc2=O)o1 | inconclusive [cytotoxic, single point] |  |
| Brc1ccc(OCCOCCOc2cccc3cccnc23)cc1 | inactive |  |
| CC1CCCCC1n1c(-c2cccnc2)n[nH]c1=S (centres undefined) | inactive |  |
| C[C@H](c1ccccc1)N1C[C@@H](COCc2ccccc2)Oc2cc(N3CC[C@@H](O)C3)ccc2S1(=O)=O | inconclusive [cytotoxic, single point] |  |
| Cc1ccc(Sc2ncccc2COC(=O)Nc2c(C)cccc2C)cc1 | inconclusive [cytotoxic, partial curve] |  |
| COC(=O)CSc1nnc(CNC(=O)c2cc(OC)cc(OC)c2)n1-c1ccc(F)cc1 | inactive |  |
| CCOC(=O)C1(C)CCCCN1C(=O)c1ccc(N(C)C)cc1 (centres undefined) | inconclusive [rising, partial curve] |  |
| CCc1ccccc1NC(=O)C1C2C=CC(O2)C1C(=O)O (centres undefined) | inconclusive [rising, single point] |  |
| CCCCC(=O)N(C)c1c(CC)nc2c(OCc3cc(Cl)cc(Cl)c3)cccn12 | inconclusive [cytotoxic, single point] |  |
| CC(C)(C)NCC(O)COc1ccccc1C1CCCC1 (centres undefined) | inconclusive [cytotoxic, single point] |  |
| CC1(C(=O)NS(=O)(=O)Cc2ccccc2)CCN1C(=O)Cc1ccc(-c2ccccc2)cc1 (centres undefined) | inactive |  |
| Cc1ccccc1NS(=O)(=O)c1ccc(N2CCCC2=O)cc1 | active: 11.6 µM |  |
| Cc1ccc(Nc2nc(-c3ccc(O)cc3O)cs2)nc1 | active: 1.64 µM |  |
| COc1ccc(OC)c(NC(=O)c2cccc(N3C(=O)C4C5C=CC(C6CC56)C4C3=O)c2)c1 (centres undefined) | inconclusive [cytotoxic, single point] |  |
| COCCNCCCCOc1ccccc1-c1ccccc1 | inactive |  |
| CCCCc1nc2ccccc2c(N)c1CCC (tested in a mixture with another compound) | inconclusive [cytotoxic, single point] |  |
| CC(=O)CCC(=O)CNC(=O)CC[C@H]1O[C@@H](n2ccc(=O)[nH]c2=O)[C@H](O)[C@@H]1O | inactive |  |
| O=C(O)C1CCN(C(=O)CSc2nc3cc(Cl)ccc3c(=O)n2Cc2ccccc2)CC1 | inactive |  |

| SMILES | Potency | activity, negative = less viability |
| --- | --- | --- |
| O=C(Nc1cccc(Cl)c1)OCCOC(=O)Nc1cccc(Cl)c1 | inconclusive [cytotoxic, single point] |  |
| O=C(COC(=O)c1ccco1)c1ccc(Cl)cc1 | inactive |  |
| COc1ccc(/C=N/Nc2cc(C)nc(-n3nc(C)cc3C)n2)c(OC)c1 | inconclusive [cytotoxic, partial curve] |  |
| N#Cc1c(N2CCN(C(=O)c3ccco3)CC2)nc(-c2ccccc2)c2c1CCCC2 | inconclusive [cytotoxic, single point] |  |
| C[C@@H]1CN([C@@H](C)CO)C(=O)c2cc(Br)cnc2O[C@H]1CN(C)C(=O)CCN1CCCCC1 | inactive |  |
| CCN(CC)CCn1c(=N)n(CC(=O)c2ccc(Br)s2)c2ccccc21 | active: 23.1 µM |  |
| Cn1c(-c2ccccc2)cc(=O)n1-c1ccccc1 | inactive |  |
| Cc1occc1C(=O)Nc1ccc(OCc2ccccc2)cc1 | inconclusive [cytotoxic, partial curve] |  |
| Oc1cccc(-c2nc3ccc4ccccc4c3c3c2CCC3)c1 | inconclusive [cytotoxic, single point] |  |
| COc1ccc(S(=O)(=O)NC(=O)C2(C)CCN2C(=O)Cc2cc(C)cc(C)c2)cc1OC (centres undefined) | inconclusive [rising, partial curve, poor fit] |  |
| CCCCN=c1scc(-c2ccc3c(c2)NC(=O)CO3)n1N=C1CCCC1 | inconclusive [cytotoxic, single point] |  |
| Cc1ccc(C)c(CC(=O)N2CCCC(c3cc(C(=O)Nc4ccc5c(c4)OCO5)no3)C2)c1 (centres undefined) | inconclusive [cytotoxic, single point] |  |
| CN(C(=O)c1ccc(NC(=O)Cc2ccc(NC(=O)C3CCN(C(=O)C4CCC4)CC3)cc2)cc1)C1CCCC1 | inactive |  |
| O=C(Cc1cccc(NC(=O)C2CCCN(C(=O)C3CCCC3)C2)c1)Nc1ccc(C(=O)N2CCOCC2)cc1 (centres undefined) | inactive |  |
| COc1cc(C(=O)NNC(=S)NC(=O)/C=C/c2ccccc2)cc(OC)c1OC | inconclusive [cytotoxic, partial curve] |  |
| CCN(C[C@H]1N[C@@](CC)(C(=O)OC)[C@H]2C(=O)N(C)C(=O)[C@@H]12)C(=O)Nc1ccc(C)cc1 | inactive |  |
| O=C(NC1CCCCC1)N1CCN(CCc2ccccc2)CC1 | inactive |  |
| Cc1ccc(Cl)cc1Nc1nc(-c2sc(NC(=O)c3ccco3)nc2C)cs1 | inconclusive [cytotoxic, single point] |  |
| Cc1c(-c2ccc(Br)cc2)nc2ccccn12 | inconclusive [cytotoxic, single point] |  |
| O=C(CNS(=O)(=O)c1c(F)cccc1F)NC1CCCc2ccccc21 (centres undefined) | inactive |  |
| CCOC(=O)C1CN(S(=O)(=O)c2ccc(C)cc2)c2cc(S(=O)(=O)CC)ccc2O1 (centres undefined) | inactive |  |
| COc1ccc(-c2n[nH]c(C(F)(F)F)c2-c2cc3ccccc3o2)c(O)c1 | inconclusive [cytotoxic, single point] |  |
| CCOc1ccc(C2C([N+](=O)[O-])=C(C)N(C)C(=O)N2C)cc1OC (centres undefined) | inactive |  |
| CCOC(=O)c1c(NC(=O)CSc2nnc(Cc3ccccc3)o2)sc(C(C)=O)c1C | inactive |  |
| Cc1cc(=O)oc2cc(NS(=O)(=O)c3ccccc3)ccc12 | inactive |  |

| SMILES | Potency | activity, negative = less viability |
| --- | --- | --- |
| CCc1ccc(C2c3[nH]c4ccccc4c3CCN2C(=O)c2cc[n+]([O-])cc2)cc1 (centres undefined) | inconclusive [cytotoxic, partial curve, poor fit] |  |
| CCOC(=O)CNC(=O)CSc1nc2nc(C)c(Br)cc2[nH]1 | inconclusive [cytotoxic, single point] |  |
| C[C@@H](NC(=O)c1coc(=O)c(Br)c1)c1ccccc1 | active: 9.2 µM |  |
| NS(=O)(=O)c1ccc(NC(=O)N2c3ccccc3Sc3ccccc32)cc1 | inconclusive [cytotoxic, single point] |  |
| COc1ccc(Cl)cc1-c1nc(SCC(=O)NCCN2C(=O)CSC2=O)n[nH]1 | inactive |  |
| CN(CC(=O)Nc1cccc(F)c1)CC(=O)Nc1ccccc1Oc1ccccc1 | inactive |  |
| CCOC(=O)[C@]12CCC=C1N(Cc1ccc(Cl)cc1Cl)C(=O)[C@H](CC(=O)N1CCC(c3ccccc3)CC1)C2 | inactive |  |
| COc1cc(F)ccc1-c1cc(C(=O)NCc2cccs2)[nH]n1 |  | inconclusive: 33.1% |
| CC(C)(C)c1ccc(C(=O)Nc2ccc(C=C(C#N)C#N)cc2)cc1 | inconclusive [cytotoxic, single point] |  |
| Nc1[nH]c(C(=O)c2ccccc2)c(-c2ccc([N+](=O)[O-])cc2)c1C(=O)NCCc1c[nH]c2ccccc12 | inconclusive [cytotoxic, single point] |  |
| CCc1ccc2c(c1)C1(NN=C(c3ccc(C)cc3)S1)C(=O)N2 (centres undefined) | inconclusive [cytotoxic, partial curve, poor fit] |  |
| NC(N)=N/N=C/c1ccc(Br)cc1 | inconclusive [cytotoxic, single point] |  |
| O=C1CCCc2c1[nH]c1ccc(CN3CCCCC3)cc21 | inconclusive [cytotoxic, partial curve] |  |
| O=c1oc(-c2cccc(C(F)(F)F)c2)nn1-c1ccc(C(F)(F)F)cn1 |  | inconclusive: 30.4% |
| CC(=O)N1c2ccccc2C(C)=CC1(C)C | inactive |  |
| COc1ccc(Cc2c(C3CCCCC3)nc3c(C)cc(Br)cn23)c(C)c1 | inconclusive [cytotoxic, single point] |  |
| COCCNc1nc(Nc2ccc(C#N)cc2)c2sccc2n1 | inconclusive [cytotoxic, partial curve, poor fit] |  |
| COc1cccc(C(O)c2cnc(C(C)C)n2C)c1 (centres undefined) | inactive |  |
| CC(C)(C#N)Cc1cc(CC(C)(C)C#N)cc(C(C)(C)C)c1 | inactive |  |
| Cc1cc(OC(=O)c2cccc(Cl)c2)c([N+](=O)[O-])c(=O)[nH]1 | inactive |  |
| CC(=O)c1c(O)c2ccccc2n(C)c1=O | inactive |  |
| COc1cc(C(=O)Oc2ccccc2/C=N/NC(=O)c2ccc(Cl)cc2)cc(OC)c1OC | inconclusive [cytotoxic, full curve] |  |
| CCc1ccccc1NC(=O)Nc1ccc(F)cc1 | inactive |  |
| COc1ccccc1C(=O)NNC(=O)CCCN1C(=O)/C(=C/c2cccs2)SC1=S | inconclusive [cytotoxic, single point] |  |

Source: PubChem BioAssay AID686970 (National Center for Advancing Translational Sciences (NCATS), 2013)
